Measurements: PubChem BioAssay AID504332 (National Center for Advancing Translational Sciences (NCATS), 2011)
Where “and” joins values, the source holds several entries; their conditions need not be identical. Equal values may be shown once. In all, about 350,000 compounds went through this assay and about 31,000 (8.9%) were called active. The shares of active, inactive and inconclusive entries below differ from those in the screen. Calls follow the shape of the dose curve; as a rule, active = well fitted inhibition curve with a large enough effect; inconclusive = small, poorly fitted or top-dose-only effect; inactive = no such curve, though single readings can be large or run the other way. Potencies of inconclusive entries are doubtful fits and often do not repeat. The source holds several records for some structures; these can differ, active in one and inactive in another.
% is scaled to controls: 0 for no effect and ±100 for the full control effect; potency is read from the fitted curve at half-maximal effect; tags tell the direction and shape of the fitted curve.
Also: nearly all actives have a fitted effect of over 75% in size.

Each compound was assayed against Histone-lysine N-methyltransferase EHMT2 (Homo sapiens) (UniProt Q96KQ7) (assay: qHTS Assay for Inhibitors of Histone Lysine Methyltransferase G9a). Conditions: G9a H3K9 monomethylation, AlphaScreen, 2 h; activity, negative = inhibition: at 59 µM (top of the series) unless noted.
UniProt Q96KQ7, sequence (Q96KQ7 whole entry, looked up): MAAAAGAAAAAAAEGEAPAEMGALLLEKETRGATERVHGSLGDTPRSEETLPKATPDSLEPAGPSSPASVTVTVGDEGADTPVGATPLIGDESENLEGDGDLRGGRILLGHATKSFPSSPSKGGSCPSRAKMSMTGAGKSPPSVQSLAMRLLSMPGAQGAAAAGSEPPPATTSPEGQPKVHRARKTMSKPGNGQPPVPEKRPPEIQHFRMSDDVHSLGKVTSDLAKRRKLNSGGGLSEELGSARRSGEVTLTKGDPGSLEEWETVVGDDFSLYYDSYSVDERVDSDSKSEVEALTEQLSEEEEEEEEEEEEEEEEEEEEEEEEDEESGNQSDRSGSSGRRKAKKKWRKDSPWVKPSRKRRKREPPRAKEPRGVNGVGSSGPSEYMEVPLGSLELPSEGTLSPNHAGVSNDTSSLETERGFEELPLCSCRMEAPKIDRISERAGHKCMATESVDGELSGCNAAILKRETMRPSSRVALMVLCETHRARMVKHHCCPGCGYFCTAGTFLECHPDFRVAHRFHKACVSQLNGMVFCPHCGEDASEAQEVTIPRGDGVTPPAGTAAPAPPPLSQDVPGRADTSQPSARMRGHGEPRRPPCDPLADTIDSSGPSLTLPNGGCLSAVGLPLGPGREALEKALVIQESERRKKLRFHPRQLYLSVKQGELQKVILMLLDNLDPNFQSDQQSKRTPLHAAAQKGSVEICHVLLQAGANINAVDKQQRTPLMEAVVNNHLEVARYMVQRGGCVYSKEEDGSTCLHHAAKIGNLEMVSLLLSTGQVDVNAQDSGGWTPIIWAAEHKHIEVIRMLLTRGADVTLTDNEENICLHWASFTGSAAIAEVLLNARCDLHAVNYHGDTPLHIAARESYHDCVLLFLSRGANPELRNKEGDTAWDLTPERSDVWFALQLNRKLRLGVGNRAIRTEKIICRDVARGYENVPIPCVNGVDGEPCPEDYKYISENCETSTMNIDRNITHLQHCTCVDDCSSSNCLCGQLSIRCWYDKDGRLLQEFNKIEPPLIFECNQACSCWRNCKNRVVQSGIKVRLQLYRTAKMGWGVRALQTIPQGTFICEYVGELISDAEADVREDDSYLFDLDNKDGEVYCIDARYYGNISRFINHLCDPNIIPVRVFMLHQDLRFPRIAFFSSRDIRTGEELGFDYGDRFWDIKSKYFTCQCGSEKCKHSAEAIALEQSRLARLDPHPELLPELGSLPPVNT
Summary of the method: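 Methyltransferase reactions run at room temperature for 2 h (20 nM enzyme, 500 nM biotin-H3K9 peptide, 20 uM SAM) after a 15 min compound preincubation; product detected by AlphaScreen beads and anti-H3K9me1 antibody.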
With `CCCc1ccc(-c2csc(NC(=O)Cc3cccs3)n2)cc1` the Potency was “inactive”. For `COc1ccc(NC(=O)C2CCCCN2N)cc1OC` (centres undefined), the Potency was inconclusive: 39.8 µM [inhibitor, single point]. `CCCC(=O)Nc1ccc(C(=O)NNC(=S)NC(=O)c2cccs2)cc1` was tested, and the activity, negative = inhibition was inactive: 5.45% [at 0.0925 µM]. With `Cc1ccc2c(c1)C(=O)C(=O)N2Cc1ccc(OC(C)C)cc1` the Potency was inconclusive: 8.91 µM [inhibitor, full curve]. With `CC(C)(C)NC(=O)COC(=O)c1c2c(nc3ccccc13)CCC2` the Potency was inconclusive: 56.2 µM [inhibitor, single point]. For `CCN(CC)S(=O)(=O)c1cc(NC(=O)NCCCl)ccc1C`, the Potency was inconclusive: 56.2 µM [inhibitor, single point]. `CSc1ccc(C(=O)c2[nH]c(=O)[nH]c2C)cc1` was tested, and the Potency was active: 10.6 µM and the activity, negative = inhibition was inactive: -19.2% [at 12.7 µM]. For `COc1ccc(NS(=O)(=O)c2cc(C)ccc2OC)cc1OC`, the Potency was inconclusive: 3.98 µM [inhibitor, single point]. For `COc1ccccc1NC(=O)c1coc(=O)c(Br)c1`, the Potency was inconclusive: 56.2 µM [inhibitor, partial curve, poor fit]. `Cn1c2ccccc2c(=O)c2cc(C#Cc3ccsc3)ccc21` was tested, and the Potency was inconclusive: 39.8 µM [inhibitor, partial curve, poor fit]. For `Cc1cc(C#N)c(C)n1-c1cc(C(F)(F)F)ccc1N1CCOCC1`, the Potency was inconclusive: 25.1 µM [inhibitor, partial curve, poor fit]. In the case of `CCC(C)[C@H](NC(=O)N1CC(=O)Nc2ccccc21)C(=O)N[C@@H](C(=O)O)c1ccccc1` (some centres undefined), the Potency is reported as active: 79.4 µM. With `Cc1ccc(C(=O)CSc2cnc3ccccc3n2)cc1C` the Potency was inconclusive: 8.91 µM [inhibitor, partial curve, poor fit]. `Cc1ccc(Cl)c(NC(=O)CCl)c1Cl` was tested, and the Potency was inconclusive: 89.1 µM [inhibitor, partial curve, poor fit]. With `Cc1cc(N2CCN(C)CC2)nc2ccc(NC(=O)c3ccc4c(c3)OCO4)cc12` the Potency was inconclusive: 10 µM [inhibitor, partial curve, poor fit]. For `CC(=O)C1=C(C)NC(SCc2ccc(C#N)cc2)=C(C#N)C1c1ccco1` (centres undefined), the Potency was inconclusive: 28.2 µM [inhibitor, single point]. In the case of `COc1ccc(CNC(=O)c2cc3c(=O)n4cccc(C)c4nc3s2)cc1`, the Potency is reported as “inactive”. `NS(=O)(=O)c1ccc(NC(=O)CN2CCN(Cc3ccccc3)CC2)cc1` was tested, and the activity, negative = inhibition was inconclusive: -94.9% [inhibitor]. For `CCOC(=O)c1ccc(NC(=O)C(C)N(c2ccc(OCC)cc2)S(C)(=O)=O)cc1` (centres undefined), the Potency was inconclusive: 5.62 µM [inhibitor, partial curve]. In the case of `C=Cc1ccc(CSc2nnc(C)n3c2cc2occc23)cc1`, the Potency is reported as active: 10 µM. In the case of `O=C(Nc1ccccc1Cl)NC1(C(=O)NCCCN2CCOCC2)CCCCC1`, the Potency is reported as “inactive”. With `CCCCn1c(N)c(N(CC(C)C)C(=O)c2cc(-c3ccc(F)cc3)nc3ccccc23)c(=O)[nH]c1=O` the Potency was inconclusive: 89.1 µM [inhibitor, single point]. `CC(=O)Nc1ccc(S(=O)(=O)Nc2nc(-c3ccc(C(C)(C)C)cc3)cs2)cc1` was tested, and the Potency was inconclusive: 89.1 µM [inhibitor, single point]. With `NS(=O)(=O)c1ccc(CCNC(=O)CCCn2c(SCC(=O)N3CCCC3)nc3ccsc3c2=O)cc1` the Potency was inconclusive: 0.501 µM [inhibitor, partial curve, poor fit]. `CCCC(=O)Nc1sc(C(=O)OC)c(C)c1C(N)=O` was tested, and the Potency was active: 11.2 µM. `Cn1c(=O)c2c(n3ncnc13)NC(=O)CC2c1cccc(F)c1` (centres undefined) was tested, and the Potency was inconclusive: 35.5 µM [inhibitor, single point]. In the case of `Cc1cc(C)n2cc(CSc3ccccn3)nc2n1`, the Potency is reported as inconclusive: 89.1 µM [inhibitor, single point]. In the case of `COCCNC(=O)CN1c2ccccc2CC1C` (centres undefined), the Potency is reported as inconclusive: 3.16 µM [inhibitor, single point]. With `CCCOc1ccc(N2C(=O)CC(NCCc3ccc(S(N)(=O)=O)cc3)C2=O)cc1` (centres undefined) the Potency was active: 35.5 µM. With `COc1cccc(-c2nc(CS(=O)(=O)CC(=O)NCCc3ccc(OC)c(OC)c3)c(C)o2)c1` the Potency was “inactive”. With `O=C(O)/C=C/C(=O)Nc1ccc(Oc2ccc(NC(=O)/C=C/C(=O)O)cc2)cc1` the Potency was inconclusive: 39.8 µM [inhibitor, single point]. In the case of `C=CCOc1c(Cl)cc(C(=S)N2CCCC2)cc1OCC`, the Potency is reported as “inactive”. With `CCC(Cc1ccccc1)NC(=O)/C=C/c1ccco1` (centres undefined) the activity, negative = inhibition was inactive: 18% [at 0.501 µM]. For `CC1OC(Oc2c(-c3cc(O)c(O)c(O)c3)oc3cc(O)cc(O)c3c2=O)C(O)C(O)C1O` (centres undefined), the Potency was active: 39.8 µM. `COc1ccc(/C=c2\sc3nc(=O)c(C)nn3c2=O)c(OC)c1` was tested, and the Potency was inconclusive: 44.7 µM [inhibitor, partial curve, poor fit]. With `NCCCC[C@@H]1NC(=O)c2cc([N+](=O)[O-])cc(I)c2SC[C@@H](C(N)=O)NC(=O)[C@H](CCC(N)=O)NC1=O` the Potency was active: 8.91 µM. With `CC(CNC(=O)Cn1c(-c2cccs2)cc2ccccc21)c1ccccc1` (centres undefined) the Potency was “inactive”. For `CC1CCN(c2cc(N)c(Cl)cc2[N+](=O)[O-])CC1`, the Potency was active: 50.1 µM. For `COc1ccc(O)c(/C=C2/SC(=S)N(Cc3ccccc3)C2=O)c1`, the Potency was active: 4.47 µM. `CCc1cc(C(=O)Nc2nc(-c3ccccn3)cs2)sc1C` was tested, and the activity, negative = inhibition was inactive: -7.54% [at 12.7 µM]. With `CC(=O)c1ccc(NS(=O)(=O)c2ccc(N)cc2)cc1` the Potency was “inactive”. In the case of `CC(C)OCC(O)CN1CCN(C(c2ccccc2)c2ccccc2)CC1` (centres undefined), the Potency is reported as active: 50.1 µM. With `CCOC(=O)CSc1nnc(CNC(=O)c2ccc(OC)cc2)n1-c1ccc(OC)cc1` the Potency was inconclusive: 79.4 µM [inhibitor, single point]. With `O=C(Nc1ccc(N2CCOCC2)cc1)c1ccc(Cl)cc1N1CCCC1=O` the Potency was inconclusive: 6.31 µM [inhibitor, single point]. `O=C(NCc1cc([N+](=O)[O-])ccc1O)c1cc(-c2ccncc2)nc2ccccc12` was tested, and the Potency was inconclusive: 70.8 µM [inhibitor, single point]. For `COc1cc(NC(=O)COc2cccc3c2OC(C)(C)C3)cc(OC)c1OC`, the activity, negative = inhibition was inactive: 22.3% [at 12.7 µM]. With `O=C(NC(=S)Nc1ccccc1[N+](=O)[O-])c1ccco1` the Potency was inconclusive: 14.1 µM [inhibitor, partial curve, poor fit]. For `CCOC(=O)C1=C(O)/C(=C/c2cc(C)n(-c3ccccc3)c2C)N=C1C`, the Potency was active: 50.1 µM. In the case of `Cc1ccc(Cl)cc1N1CCN(CCCNC(=O)c2nnc(Cc3cccc(Cl)c3)o2)CC1`, the Potency is reported as “inactive”. With `Cc1ccc(/C=N/N=C/c2ccc(C)s2)s1` the Potency was inconclusive: 79.4 µM [inhibitor, single point]. `O=C1c2ccccc2C(=O)N1Cc1cnc(N2CCN(c3ccccc3)CC2)s1` was tested, and the activity, negative = inhibition was inconclusive: -72.8% [inhibitor]. With `CN(CCC#N)S(=O)(=O)c1ccc2[nH]cc(C(=O)NCCc3ccccc3)c(=O)c2c1` the Potency was inconclusive: 25.1 µM [inhibitor, single point]. In the case of `CC(NC(=O)NNC(N)=S)(C(F)(F)F)C(F)(F)F`, the Potency is reported as “inactive”. `Cc1ccccc1Nc1nnc(SCc2cc([N+](=O)[O-])cc3c2OCOC3)s1` was tested, and the Potency was inconclusive: 12.6 µM [inhibitor, partial curve, poor fit]. In the case of `O=C(c1ccccc1)c1coc2ccc(O)c(Cl)c12`, the Potency is reported as inconclusive: 28.2 µM [inhibitor, single point]. In the case of `CCCCN(C)CCNC(=O)C1CCN(S(=O)(=O)c2cccc3nsnc23)CC1`, the Potency is reported as “inactive”. For `CN1CCN(C(=O)C23CCC(C)(c4nc5ccccc5nc42)C3(C)C)CC1` (centres undefined), the Potency was inconclusive: 89.1 µM [inhibitor, partial curve, poor fit]. `CN1CCc2nc3sc(C(=O)Nc4cccc(C#N)c4)c(N)c3cc2C1` was tested, and the Potency was active: 15.8 µM. `CC[C@H](C)[C@@H](NC(=O)O[C@@H]1C(=O)c2cc(Br)ccc2O[C@H]1c1cccc(OC)c1)C(=O)OC` was tested, and the Potency was inconclusive: 89.1 µM [inhibitor, single point]. For `CSCC[C@H](NC(=O)N1CCn2c1nc1ccccc12)C(=O)NCC1CCCO1` (some centres undefined), the Potency was “inactive”. With `COc1cc(NC(=O)c2ccc([N+](=O)[O-])o2)ccc1NC(=O)c1ccco1` the Potency was inconclusive: 12.6 µM [inhibitor, single point]. `COc1ccc2ncc(S(=O)(=O)c3ccccc3)c(N3CCC4(CC3)OCCO4)c2c1` was tested, and the Potency was inconclusive: 50.1 µM [inhibitor, partial curve, poor fit]. With `CC(C)(S)[C@@H](N)C(=O)O` the Potency was inconclusive: 5.01 µM [inhibitor, partial curve, poor fit] and inconclusive: 2 µM [inhibitor, full curve, poor fit]. `Cn1c(OCc2ccc3c(c2)OCO3)nc2c1c(=O)n(Cc1ccc(Cl)c(Cl)c1)c(=O)n2C` was tested, and the Potency was inconclusive: 89.1 µM [inhibitor, single point]. With `CCOc1ccc(CCNC(=O)c2cc3ccccn3n2)cc1OCC` the Potency was inconclusive: 39.8 µM [inhibitor, partial curve, poor fit]. In the case of `Cc1ccc(N2CC(C(N)=O)CC2=O)cc1` (centres undefined), the activity, negative = inhibition is reported as inactive: 2.05% [at 12.7 µM]. In the case of `COC(=O)C12CCC(C)(c3nc4ccccc4nc31)C2(C)C` (centres undefined), the activity, negative = inhibition is reported as inconclusive: -59.9% [inhibitor]. In the case of `CC(CNC(=O)CN1C(=O)NC2(CCCCC2C)C1=O)c1ccccc1` (centres undefined), the Potency is reported as inconclusive: 44.7 µM [inhibitor, partial curve, poor fit].
